The results in this text go back to patent US20150259422A1 (UNIVERSITY OF NORTH CAROLINA AT CHAPEL HILL, published 2015).

Residue numbers refer to the chain shown, from its start. No end group written: not given here.

The target in test [1] is T1, alphaVbeta3 integrin, native human, on rhabdomyosarcoma (RD) cells and on human umbilical vein endothelial … (human, UniProt P06756 31-1048; P05106 27-788).
T1 construct: whole, on cells; also called αVβ3; native human β3
Description: flow cytometry on RD cells expressing alphaVbeta3, PE anti-human IgG; EC50 = concentration where 50% of cells gated in R2. A general note: In flow cytometry, cells or beads pass a laser one at a time.

The target of test [2] is T1, alphaVbeta3 integrin, native human, on …. Description: flow cytometry on RD cells expressing alphaVbeta3; reference chimeric HLMC.
The target is the same in test [3]. Description: flow cytometry on human rhabdomyosarcoma cells.
Test [4] concerns the target T2, human C-loop peptide antigen (β3 cysteine loop peptide) (human, cysteine pairing not given here; also: coated as C-loop peptide conjugate, carrier not given here).
T2 construct: also called human peptide antigen; C-loop antigen peptide
T2 peptide: CYDMKTTC
Description: ELISA on plate-coated C-loop peptide conjugate, four-parameter fit; mean ± SD, n = 3.

Test [5] addresses T1, alphaVbeta3 integrin, native human, on …. Description: cell based ELISA on HUVEC cultured in normal glucose (5 mM/L); mean ± SEM, N = 4.
The target is the same in test [6]. Description: cell based ELISA on HUVEC cultured in high glucose (25 mM/L); mean ± SEM, N = 6. A general note: ELISA stands for enzyme-linked immunosorbent assay.
Test [7] addresses T3, human β3 expressed in CHO-K1 cells (CHO-Huβ3) (human, UniProt P05106 27-788).
T3 construct: whole, on cells; Only the β3 subunit was transfected; also called CHO-Hub3; CHO-K1 - Huβ3
Description: cell based ELISA on CHO-K1 cells expressing human β3; mean ± SEM, N = 3 assays.

For test [8], the target named is T2, human C-loop peptide antigen (β3 …). Description: ELISA on plate-coated human C-loop peptide conjugate.
Test [9] addresses T4, monkey β3 expressed in CHO-K1 cells (monkey (Callithrix jacchus), UniProt U3B9A7 27-788).
T4 construct: whole, on cells; Only the β3 subunit was transfected; also called MOβ3; monkey integrin β3
T4 sequence: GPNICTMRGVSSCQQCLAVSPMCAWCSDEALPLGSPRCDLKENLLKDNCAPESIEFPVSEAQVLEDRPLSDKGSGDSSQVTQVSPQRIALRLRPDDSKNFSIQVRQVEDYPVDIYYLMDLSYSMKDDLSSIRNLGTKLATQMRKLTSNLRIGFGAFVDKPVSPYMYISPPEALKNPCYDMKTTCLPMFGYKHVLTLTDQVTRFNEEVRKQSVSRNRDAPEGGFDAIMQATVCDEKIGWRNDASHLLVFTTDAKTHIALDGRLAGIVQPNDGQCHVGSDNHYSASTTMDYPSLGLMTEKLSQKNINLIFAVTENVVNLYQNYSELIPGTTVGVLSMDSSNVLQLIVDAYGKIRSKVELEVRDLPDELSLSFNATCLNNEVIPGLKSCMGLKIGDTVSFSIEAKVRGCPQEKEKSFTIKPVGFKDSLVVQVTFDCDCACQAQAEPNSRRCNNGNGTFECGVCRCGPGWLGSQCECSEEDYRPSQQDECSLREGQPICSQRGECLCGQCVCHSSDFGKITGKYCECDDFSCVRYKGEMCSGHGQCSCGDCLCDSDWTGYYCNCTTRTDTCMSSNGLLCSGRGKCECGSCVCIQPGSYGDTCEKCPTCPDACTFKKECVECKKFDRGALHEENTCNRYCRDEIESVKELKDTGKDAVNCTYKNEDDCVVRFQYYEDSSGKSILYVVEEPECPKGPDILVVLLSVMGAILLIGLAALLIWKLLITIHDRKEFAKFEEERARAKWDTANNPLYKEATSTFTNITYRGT
Description: cell based ELISA on CHO cells expressing monkey β3; mean ± SEM, N = 3.

For test [10], the target named is T5, rat β3 expressed in CHO-K1 cells (rat, UniProt Q8R2H2 26-787).
T5 construct: whole, on cells; Only the β3 subunit was transfected; also called RAβ3; rat integrin β3
T5 sequence (looked up): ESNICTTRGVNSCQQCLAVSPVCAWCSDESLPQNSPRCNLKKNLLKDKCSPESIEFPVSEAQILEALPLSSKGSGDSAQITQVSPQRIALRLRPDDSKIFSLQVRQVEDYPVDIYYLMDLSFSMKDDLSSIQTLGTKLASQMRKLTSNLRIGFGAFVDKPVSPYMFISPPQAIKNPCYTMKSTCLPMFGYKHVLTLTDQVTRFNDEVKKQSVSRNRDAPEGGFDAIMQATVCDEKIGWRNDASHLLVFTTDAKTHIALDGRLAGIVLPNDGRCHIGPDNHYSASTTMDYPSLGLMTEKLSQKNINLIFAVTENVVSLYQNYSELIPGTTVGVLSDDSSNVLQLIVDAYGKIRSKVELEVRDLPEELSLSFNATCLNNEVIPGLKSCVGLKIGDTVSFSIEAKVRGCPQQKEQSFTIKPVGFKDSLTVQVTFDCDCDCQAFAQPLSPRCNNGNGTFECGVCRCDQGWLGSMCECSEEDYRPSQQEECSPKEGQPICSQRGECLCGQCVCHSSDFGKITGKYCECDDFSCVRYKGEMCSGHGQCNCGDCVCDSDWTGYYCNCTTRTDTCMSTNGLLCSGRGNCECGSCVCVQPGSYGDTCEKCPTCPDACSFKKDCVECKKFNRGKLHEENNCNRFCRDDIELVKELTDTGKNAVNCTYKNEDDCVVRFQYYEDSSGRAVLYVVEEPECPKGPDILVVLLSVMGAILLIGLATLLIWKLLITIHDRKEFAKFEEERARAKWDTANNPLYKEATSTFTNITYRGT
Description: cell based ELISA on CHO cells expressing rat β3; mean ± SEM, N = 3.

T1 sequence (P06756 31-1048): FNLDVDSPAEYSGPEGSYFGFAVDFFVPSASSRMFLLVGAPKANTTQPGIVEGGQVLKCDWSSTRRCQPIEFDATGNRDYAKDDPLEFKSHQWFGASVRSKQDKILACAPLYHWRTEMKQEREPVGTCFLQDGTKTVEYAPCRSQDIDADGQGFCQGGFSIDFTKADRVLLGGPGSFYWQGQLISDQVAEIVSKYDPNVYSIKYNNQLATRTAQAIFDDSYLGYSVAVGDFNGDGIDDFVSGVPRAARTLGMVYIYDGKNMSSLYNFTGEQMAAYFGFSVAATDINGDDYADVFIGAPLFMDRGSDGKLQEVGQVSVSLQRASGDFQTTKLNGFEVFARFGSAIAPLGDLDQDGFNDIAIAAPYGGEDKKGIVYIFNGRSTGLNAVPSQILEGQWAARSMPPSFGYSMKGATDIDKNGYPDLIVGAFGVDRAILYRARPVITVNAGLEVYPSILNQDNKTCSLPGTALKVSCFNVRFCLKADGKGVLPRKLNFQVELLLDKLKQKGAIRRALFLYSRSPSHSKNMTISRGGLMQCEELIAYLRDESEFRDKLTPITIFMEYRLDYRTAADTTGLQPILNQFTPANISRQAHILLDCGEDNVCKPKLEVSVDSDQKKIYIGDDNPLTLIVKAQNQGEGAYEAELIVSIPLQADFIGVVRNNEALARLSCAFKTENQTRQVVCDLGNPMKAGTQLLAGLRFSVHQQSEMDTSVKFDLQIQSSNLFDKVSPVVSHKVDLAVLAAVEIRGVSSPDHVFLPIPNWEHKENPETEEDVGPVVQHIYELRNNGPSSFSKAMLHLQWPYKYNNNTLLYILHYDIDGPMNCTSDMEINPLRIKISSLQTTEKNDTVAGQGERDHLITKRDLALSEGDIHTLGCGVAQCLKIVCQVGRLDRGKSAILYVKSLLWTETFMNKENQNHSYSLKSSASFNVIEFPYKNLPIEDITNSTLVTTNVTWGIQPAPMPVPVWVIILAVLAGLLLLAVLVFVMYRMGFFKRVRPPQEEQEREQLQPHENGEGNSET

B1: VH5/Vκ2 Composite Human Antibody variant of HLMC (antibody, human IgG1, kappa)
heavy: QAQLVQSGAEVKKPGASVKVSCKASGYLFSNSWMNWVKQRRGAGLEWIGRIFPGDGDTNYNGKFKGRVTITADKSTSTAYMELSSLRSEDTAVYYCARWGLTRDRRLYLDYWGQGTTVTVSS[human IgG1 constant region omitted here]
light: DIVMTQSPDSLAVSLGERATINCKSSQSLLYSSNQKNYLAWYQQKPGQAPRLLIYWASTRESGVPDRFTGSGSGTDFTLTISSLQAEDVAVYYCKQYYTYPLTFGQGTKLEIKRTVAAPSVFIFPPSDEQLKSGTASVVCLLNNFYPREAKVQWKVDNALQSGNSQESVTEQDSKDSTYSLSSTLTLSKADYEKHKVYACEVTHQGLSSPVTKSFNRGEC
notes: also called VH5VK2; Vh5/Vk2
What is called EC50 is the concentration at which the effect is half-maximal. What is called Kd is the concentration at which binding is half-saturated. Turning to B1, the EC50 was determined as 0.00343 µM in [1] and 0.018 µM in test [3]. Also, the “relative binding score (EC50 of variant divided by EC50 of chimeric HLMC)” value in [2] worked out at 0.96 ratio. The Kd in test [4] was 0.00021 µM.

B2: VPI-2690B (antibody, human IgG1, kappa)
heavy: B1 heavy with A2V
light: B1 light
notes: also called VH6/Vκ2; optimized humanized monoclonal IgG1
For B2, the 50% effective concentration (EC50) stood at 0.0118 µM in test [5]; 0.0329 µM in [6]; 0.0203 µM in test [7]; 0.0225 µM in test [9]; 0.0129 µM in [10]. The same molecule had a Kd in [4] of 0.00028 µM. In addition, the “fold increase in affinity against the parent murine monoclonal” value in test [8] is about 5 fold.
